From the supplement of paper PMC11417369
Some of the results follow.

System: PF3D7_0420300 AP2 domain 1 (GST-tagged)
Experiment: gcPBM binding intensity (ln(normalized median fluorescence intensity)); higher = stronger DNA binding
Outline: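 GST-tagged P. falciparum DNA-binding domains produced in E. coli were incubated for 1 h on an Agilent 4 × 180k array of primer-extended double-stranded 36-bp intergenic genomic probes with negative controls. Binding intensity is the highest Masliner-normalised natural-log median intensity across replicate spots of either probe orientation, with bound protein detected by Alexa488 anti-GST antibody at 488 nm.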

Row | Sequence | gcPBM binding intensity (ln)
1 | TTTTTTTTTTTTTGATGTACTAAAAAAAATGAGCCT [XGTACX_site8535] | 8.78
2 | AAATATTACTACACTACATGCAGTTTTAGGTACACT [TGCATGCA_site42] | 9.21
3 | AAAAACAAAATATAATGTACACAATATATGTATATA [XGTACX_site2301] | 9.51
4 | TTTCATCTCGTCATTTCTTATATAACTATTTTATAC [CACACA_negctrl_site813] | 9.39
5 | ATTATTGTTTATTGATTTTTGTTAAAATAGGAAATT [GTGCAC_negctrl_site181] | 9.12
6 | ATTATATTTATTAATATGTATATTTAATTATATTTA [XGTACX_negctrl_site376] | 9.1
7 | AAGTGTAAAAGTTACACACACAAACTTGTCATTTTT [CACACA_site4614] | 9.74
8 | CAAATTTTTTATTAAACACACAAACATATATATATA [CACACA_site5122] | 9.36
9 | TTCTTTATTATATGCACACGTACATAAAATATATAT [CACACA_site5157] | 9.36
10 | TATAAAAAATATATATATAATATTATATATATATAT [TGCATGCA_negctrl_site260] | 8.93
11 | ATTTTTTTTTTTTTTTGTACGAATAATATGTATGAA [XGTACX_site5318] | 9.01
12 | AAAGGAGGGAATTTTTCTAGGTGTGGAGTGCTACTC [XGTACX_negctrl_site63] | 9.44
13 | TATATATATATATGTAGTACCTATAATATTAAATAC [XGTACX_site6118] | 9.19
14 | AAGAAAAGAAACAAAAAAAAAAAGAAATAAAAGGAA [TGCATGCA_negctrl_site171] | 9.73
15 | AATTTTTTTTTTTTTTTTTTTTATATATGTGTGTGT [XGTACX_negctrl_site129] | 9.74
16 | TATGAATGGTTAAGTACACACATATTAATATAGGTA [CACACA_site7606] | 9.57
17 | ATCAATAAATAAAATGTGCACATAATATATTAATAC | 9.57
18 | TTGAAGAAAAAAAAATGTACATAAAAAATATATATG [XGTACX_site428] | 9.23
19 | CTTATAAATAAAAGAAGTACATGTTAGTTCAAGTTA [XGTACX_site4183] | 9.24

Row | Sequence | gcPBM binding intensity (ln)
20 | TTTTTGTTTCATAAATGTACAAAAACAAACATATTT [XGTACX_site5281] | 8.88
21 | TTATATGTATATATAGTGCAGAACAAAAGATTATAT [GTGCAC_site9599] | 9.37
22 | TCGTCTCAATAATTATAATAAAAAAATTCCTAAGTC [CACACA_negctrl_site338] | 9.06
23 | ATTTTCCTATTTAGTAGTACTTTTTTCTTTTTTTAA [XGTACX_site5260] | 9.58
24 | TTATATTTCACAAATGTGCACAGATACATATATATA | 9.28
25 | AAAAAAAAATAGAAATGTACAAATTGTAATAATTCC [XGTACX_site6182] | 9.34
26 | GAGCATTACACATATACACACATATATATAAACATA [CACACA_site5515] | 9.7
27 | TATAATAATATTTATTGTACGATTAGATTAATTCAT [XGTACX_site612] | 9.08
28 | CATATGATATTATTTTGTACTTATTACAAATATGAA [XGTACX_site7929] | 8.94
29 | ATATATATATATATTTGTACATAATATATATATGCA [XGTACX_site1795] | 9.11
30 | AAACAATTTAGACATACACACAAAAATAATATTATA [CACACA_site384] | 9.88
31 | CACGAAAATTTGTAGAGTACATATATAATTAATATA [XGTACX_site3808] | 9.15
32 | ATATATATATATATATGTACATATTGTATTATTCAC [XGTACX_site6511] | 9.19
33 | ATTAAAAAAAAGCTCATCGAAATGTCTTATATAAAT [CACACA_negctrl_site912] | 9.17
34 | CAATTAAACAATTAAACATGCAAAATGATATAATAA [TGCATGCA_site240] | 9.46
35 | AAATTAAAATATAATACACACATAAAAAAAAAATCA [CACACA_site5918] | 9.85
36 | GTATATGAATGTTCATGTACATAATAAAATATATAA [XGTACX_site250] | 9.14
37 | ATATATATATATAAAGTGCAAAAATGAAAGTAAGAC [GTGCAC_site9850] | 10
38 | ATAAAATATAAAAACGCACACAATTATAAGGGTGTA [CACACA_site177] | 9.71

Row | Sequence | gcPBM binding intensity (ln)
39 | ATGTTCTATAAATATGAACACACGACATATTATTTA [CACACA_site1799] | 9.12
40 | TATATTTAATTACATGAACACACATTATATATTTTT [CACACA_site8969] | 9.34
41 | TGTAGTATCAATTTTTGTACATAACACATATGTATA [XGTACX_site613] | 9.12
42 | ATATATATATATATATGTACATATTATTCTCATTGT [XGTACX_site6259] | 9.13
43 | AAAACAAACACATTTACACACATAAATAAATCAATT [CACACA_site4122] | 9.81
44 | TTTATTTTTCCATATGCACACACACCGTATATATAA [CACACA_site8293] | 9.98
45 | AAAATATAAATATATTTGAACATGGATCAAATGTAA [GTGCAC_negctrl_site626] | 9.18
46 | TATTCATTCTATAAAACACACAAATATTTTTGTATC [CACACA_site666] | 9.26
47 | ATACATACATACATACGTACATATGTATATATATAT [XGTACX_site8498] | 9.38
48 | AGTATACTCAAACACACACACACAAAAAAAAAAAAA [CACACA_site4398] | 10
49 | TAAGAAATAAATAGTACACACATAGACACCCACCGA [CACACA_site1516] | 9.88
50 | CAGTTTAATTTACATAGTACATAATATTTTAATTTT [XGTACX_site1793] | 9.13
51 | GTAATATTAATATAATGTACAAAATGAAACATATAT [XGTACX_site6219] | 9.41
52 | ACAATATTATTATTTAACCATACACAATTATATGTC [XGTACX_negctrl_site378] | 9.25
53 | CAAAAAGATAAGGTGTGTACGTATTATAATTTTAAA [XGTACX_site531] | 9.45
54 | ATTTAATTTTCCAAATGTACTTATATTTTTATGAAA [XGTACX_site6144] | 9
55 | TGAAATGATCTTTAGTTGCACTTAAAAATATATATA | 8.87
56 | GGTATATAAAAATATTGTACTTAAAAAAATATGTAT [XGTACX_site6253] | 9.26
57 | TATTTCACTTTTTGTCTGCACTAAAATTTTATGGTA | 9.27
